In the supplement of paper PMC3334620:
Whole data set: some 33,000 sequences, median “E-score (-0.5 to 0.5)” near -0.017, cut for the highest 2% near 0.3. This is one part of the list.

Biological target: T1, Sut1 (UniProt P53032)
T1 sequence: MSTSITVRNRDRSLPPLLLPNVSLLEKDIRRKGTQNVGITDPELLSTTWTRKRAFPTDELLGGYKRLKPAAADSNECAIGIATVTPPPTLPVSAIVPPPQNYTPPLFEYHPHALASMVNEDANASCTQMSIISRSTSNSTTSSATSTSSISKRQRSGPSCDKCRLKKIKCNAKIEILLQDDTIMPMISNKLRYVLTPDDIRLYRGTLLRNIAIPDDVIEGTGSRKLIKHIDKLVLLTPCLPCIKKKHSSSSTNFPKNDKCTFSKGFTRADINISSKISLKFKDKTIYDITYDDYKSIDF
Assay: PBM E-score (8-mer binding enrichment) (E-score (-0.5 to 0.5)); higher = stronger / more preferred TF binding; most listed sequences are background and not binding sites
Conditions: protein concentration: 200 nM; construct: GST-full length
Outline: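 Each ungapped eight-base word and its reverse complement, pooled, received an E-score from the Universal PBM Analysis Suite. Underlying scans, normalised with masliner, recorded fluorescent anti-GST bound to GST-tagged yeast transcription factors. These were applied at about 100-200 nM to universal all-10-mer Agilent arrays double-stranded by primer extension.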

Sequence | PBM E-score
CGACTACA | -0.0233
AGCTATAG | -0.136
AGCAAAGA | -0.00358
GGGGGTAC | -0.0797
AGGACCGC | -0.00375
GAAATTTC | 0.149
GAGTACTA | 0.13
ATGTGCGA | -0.0365
CGTGCGCC | -0.0359
ATGGCGGA | -0.0131
ATTGGTCC | 0.0796
CACCAAGA | -0.111
GCGGATAC | 0.037
AGGAGACT | -0.0506
AACGTTGG | -0.0132
CACGCTCA | 0.0901
AGTGGCAA | -0.101
ATAAGTCG | 0.0862
AACCCTCC | -0.325
CTCCACAA | -0.0276
CCGAACGG | 0.235
CTAAAGGA | 0.0933

Sequence | PBM E-score
GGGTAGGA | -0.0425
ATTTTTTG | 0.132
GCCCAAAA | -0.0622
CAGTCATG | -0.193
CAATACTA | -0.0656
AAACGTTG | -0.176
CCCGGGTA | -0.0559
GACTCCTA | 0.0134
AGCGTATG | -0.216
AGCATCGC | -0.0602
CTTAGAAG | -0.112
AACGACTT | -0.0422
CATTCTAC | 0.0945
ACGTCGTG | -0.0891
GATCTACC | -0.128
CCCCACAG | -0.36
CGGCTTAA | 0.185
ACCGTGCG | -0.0849
AACATACA | 0.194
AGCAATAG | -0.0816
GTTCCTCA | -0.215
AGAGGCTA | -0.217

Sequence | PBM E-score
GTAGGCAA | -0.132
AGTTTCCA | 0.134
TATCCACA | 0.0115
CTATGGAC | -0.059
ACGTCTTG | -0.0309
ATTGCTGG | -0.0853
CGTAGCTA | 0.0208
AACTCTGG | -0.0642
ACCCGCCC | -0.0839
GTACCTAA | -0.0405
AATAATCC | 0.0878
GATTTATA | 0.255
CGGGCTGC | -0.15
CTGGCTAC | -0.124
ATGTGTCA | 0.188
CACATATG | -0.0886
ACAATCCT | 0.103
AACCCTGC | -0.13
TATGAAAA | 0.191
GAACTGGA | -0.0218
ATGGTCAG | 0.0354
CGCGTGAA | -0.0846

Sequence | PBM E-score
AGGATTAA | -0.0189
AGAGACAA | 0.157
TGAGCTAA | 0.102
CAAACTCC | 0.356
GATAGGCA | 0.0117
GGAGCTAA | 0.058
AACATGGT | -0.173
AGACTACT | -0.0623
ACAAATGA | 0.129
AGGTAAGG | -0.0834
CGAGCCGC | -0.00209
ATCCTAAC | 0.0866
GGACGCCA | -0.332
CATAGGGG | -0.348
GCCGACCA | -0.203
AGCGCCTG | -0.219
ACTTACAC | 0.0193
GACCATTA | 0.171
AATGAGTC | 0.0558
CAATGTCG | -0.0012
